Consider 85 compounds from PMC4336329 (PLoS ONE, 2015).

About 14,000 (4.5%) of roughly 310,000 compounds showed an effect of 50% or more. The effect is printed as a negative number. The list shows a part of the results.
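Further: peak tail current of the secondary pulse compared with the same well before compound.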

Chain of human ether-à-go-go-related gene (hERG) potassium channel (Q12809 whole entry, looked up): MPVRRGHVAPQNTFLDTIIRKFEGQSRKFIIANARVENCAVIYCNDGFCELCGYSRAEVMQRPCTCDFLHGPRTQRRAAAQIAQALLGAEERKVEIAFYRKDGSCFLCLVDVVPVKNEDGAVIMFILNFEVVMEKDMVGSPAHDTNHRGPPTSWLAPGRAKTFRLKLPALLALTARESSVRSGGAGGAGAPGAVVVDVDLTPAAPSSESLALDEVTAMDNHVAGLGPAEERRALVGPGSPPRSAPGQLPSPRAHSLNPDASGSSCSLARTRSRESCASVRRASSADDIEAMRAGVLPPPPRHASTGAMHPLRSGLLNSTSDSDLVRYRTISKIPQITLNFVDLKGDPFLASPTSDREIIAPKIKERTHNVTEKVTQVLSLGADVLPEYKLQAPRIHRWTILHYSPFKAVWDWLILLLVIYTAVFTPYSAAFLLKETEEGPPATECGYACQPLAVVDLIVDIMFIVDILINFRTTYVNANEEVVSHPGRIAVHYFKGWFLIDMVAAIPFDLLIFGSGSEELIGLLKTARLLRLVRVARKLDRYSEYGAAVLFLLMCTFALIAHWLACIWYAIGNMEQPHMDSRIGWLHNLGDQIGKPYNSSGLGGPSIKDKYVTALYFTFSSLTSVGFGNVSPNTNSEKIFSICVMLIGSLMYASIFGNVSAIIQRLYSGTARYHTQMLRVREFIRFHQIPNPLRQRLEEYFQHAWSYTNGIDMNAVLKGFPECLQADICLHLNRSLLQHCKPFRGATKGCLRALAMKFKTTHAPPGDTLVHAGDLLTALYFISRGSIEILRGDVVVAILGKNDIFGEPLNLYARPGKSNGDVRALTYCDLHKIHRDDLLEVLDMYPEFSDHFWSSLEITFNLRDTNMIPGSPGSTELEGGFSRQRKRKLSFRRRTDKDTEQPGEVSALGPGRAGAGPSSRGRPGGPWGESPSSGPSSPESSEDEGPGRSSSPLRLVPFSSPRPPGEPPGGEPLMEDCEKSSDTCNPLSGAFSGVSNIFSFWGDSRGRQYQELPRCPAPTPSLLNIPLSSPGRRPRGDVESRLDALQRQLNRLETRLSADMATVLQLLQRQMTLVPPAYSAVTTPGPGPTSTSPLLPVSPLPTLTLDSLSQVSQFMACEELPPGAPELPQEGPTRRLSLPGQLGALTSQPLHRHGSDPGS

This assay has as its target human ether-à-go-go-related gene (hERG) potassium channel (human, UniProt Q12809). Description: primary screen, population patch clamp on CHO cells stably expressing hERG.
`COc1ccc(-c2nnn(CC(=O)N(CC(=O)NC3CCCC3)c3ccccc3F)n2)cc1OC`: the “hERG current change (%, negative = inhibition) at 10uM” value is reported as -21.3%. Then `Fc1ccc(NC(=S)N2CCn3cccc3C2c2cccnc2)cc1` (stereo not shown), with -25.9%; and `CC(C)N1C(=O)CCC1C(=O)NCc1ccc(F)cc1Cl` (stereo not shown), with 18.3%. Then `COCCCN1C2=C(C(=O)CC(C)(C)C2)C(c2ccc(OC)c(OC)c2)C2=C1CC(C)(C)CC2=O`, with 11.2%; and `CCC(C)n1c(SCC(=O)NCc2ccco2)nnc1-c1cccc(S(=O)(=O)N2CCOCC2)c1` (stereo not shown), with -27.4%; and `CCOc1ccccc1Nc1ccc2nonc2c1[N+](=O)[O-]`, with 17.2%. Turning to `COc1ccc(-c2csc(NC(=O)CS(=O)(=O)c3ccccc3)n2)cc1`, the “hERG current change (%, negative = inhibition) at 10uM” value is on record as -28.6%.

Regarding `COC(=O)c1cc(S(=O)(=O)N2CCN(c3cccc(Cl)c3)CC2)c[nH]1`, the “hERG current change (%, negative = inhibition) at 10uM” value was -5%. Then `Cc1nc2c(-c3ccc(F)cc3)c(C)[nH]n2c(=O)c1Cl`, with 16.8%; and `Cc1cc(F)ccc1S(=O)(=O)N1CCCCC1CCNC(=O)C(=O)NCCN1CCOCC1` (stereo not shown), with -10.5%; and `CCCCn1cnc2sc3c(c2c1=N)CCCC3`, with -52.1%.

As for `O=C(CCc1nnc2ccc(NCc3ccccc3Cl)nn12)NCC1CCN(C2CCCC2)C1` (stereo not shown), the “hERG current change (%, negative = inhibition) at 10uM” value was determined as 12.8%. For the compound `CCOC(=O)C1CCN(C(=O)c2cc3c(=O)n4cccc(C)c4nc3s2)CC1`, the “hERG current change (%, negative = inhibition) at 10uM” value is -15.5%. The value for `COc1ccc(C(=O)N/N=C\c2coc3ccccc3c2=O)cc1` was 6.36%; that for `CC1(C)Cc2nc3oc4c(=O)n(CC(=O)Nc5ccc(Cl)cc5)cnc4c3cc2CO1` was 12.8%. The value for `CCn1c(C)c(C(=O)Nc2ccc(OC)cc2)c2cc(OC)ccc21` was 15.4%; that for `COC(=O)C1=C(c2ccc(F)cc2OCc2ccccc2)C[C@@H]2CC[C@H]1N2C(=O)NC1Cc2ccccc2C1` was 1.92%; that for `CCCC(C(=O)NC(C)(C)CC)N(CC1CCCO1)C(=O)CNS(=O)(=O)c1ccc(F)cc1` (stereo not shown) was -19%. Then `Cc1cc(C)c2nc(N(CCCN(C)C)C(=O)c3ccc(S(=O)(=O)N4CCCCCC4)cc3)sc2c1.Cl`, with -20.3%; and `CCc1c(C)[nH]c2c(C)cccc2c1=O`, with 7.93%. Turning to `CCOC(=O)CNC(=O)Cn1cnc2ccc(S(=O)(=O)N3CCC(C)CC3)cc2c1=O`, the “hERG current change (%, negative = inhibition) at 10uM” value is -7.29%.

Turning to `COc1ccc(C(=O)CCC(=O)Nc2ccc(N3CCN(C)CC3)cc2)cc1OC`, the “hERG current change (%, negative = inhibition) at 10uM” value is given as -9.47%.

Regarding `O=c1ccc2c(o1)/C(=C/C=C(Cl)Cl)CCC2`, the “hERG current change (%, negative = inhibition) at 10uM” value was 12.7%. Consider `Cc1ccc(-c2csc3ncnc(OCC(=O)NC(=O)NCc4ccco4)c23)cc1`, for which the “hERG current change (%, negative = inhibition) at 10uM” value is given as -0.796%. The value for `COc1ccccc1N(CC(=O)NCc1ccccc1C)S(=O)(=O)c1ccc(C)cc1` was -18.4%; that for `COCCSc1nnc(NC(=O)C2CC(=O)N(c3ccc(Cl)cc3)C2)s1` (stereo not shown) was -15.6%; that for `Cc1ccc(C(=O)Nc2ccc(S(=O)(=O)N3CCOCC3)cc2)cc1Br` was 3.46%. Then `CCOc1ccc(NC(=O)CN(C)C(=O)Cn2c(=O)oc3ccccc32)cc1OCC`, with 0.927%. As to `Nc1ccccc1Nc1ccccc1`, the “hERG current change (%, negative = inhibition) at 10uM” value is -13.6%.

Regarding `COc1ccc(OCc2cc(C(=O)N3CCC(c4ccccc4)CC3)no2)c(Cl)c1`, the “hERG current change (%, negative = inhibition) at 10uM” value is -18.3%.

As for `Cc1ccc(C(=O)CSc2nnc(-c3ccccc3)n2-c2ccccc2)o1`, the “hERG current change (%, negative = inhibition) at 10uM” value is listed as -3.09%. The value for `O=C1/C(=C/c2cccnc2)SC(=S)N1C1CCS(=O)(=O)C1` (stereo not shown) was -0.422%; that for `CCOC(=O)c1c(-c2ccccc2)csc1NC(=O)CSc1nnc(C)s1` was 27.7%.

Turning to `Cc1ccc(CNn2cnnc2SCc2ccc(F)cc2)cc1`, the “hERG current change (%, negative = inhibition) at 10uM” value was -36.3%. For the compound `COc1ccc(NC(=O)CSc2nc3ccccc3nc2N2CCOCC2)cc1`, the “hERG current change (%, negative = inhibition) at 10uM” value is recorded as -22.6%. `CCc1ccccc1NC(=O)C1(S(=O)(=O)c2ccc(C)cc2)CC1`: the “hERG current change (%, negative = inhibition) at 10uM” value is given as -43.7%. The value for `COc1cc([C@@H]2[C@H]3CNCC=C3C(C#N)=C(N)C2(C#N)C#N)ccc1OC(C)C` was -3.91%; that for `COc1ccc(C)cc1S(=O)(=O)N1CC(C)OC(C)C1` (stereo not shown) was 12.5%; that for `Cc1oc2cc3oc(=O)c(CCC(=O)N4C[C@H]5C[C@@H](C4)c4cccc(=O)n4C5)c(C)c3cc2c1C` was -54%. Then `CCCN(CCC)CC(O)COc1ccccc1C(=O)Nc1ccccc1.Cl` (stereo not shown), with -68.2%; and `CC(C)CC(NS(=O)(=O)OCC(Cl)(Cl)Cl)c1ccccc1` (stereo not shown), with 1.57%; and `O=C(CSc1nc(=O)n2ccccc2n1)N1CCCc2ccccc21`, with -16.8%. Then `Cc1cccc(C)c1NC(=O)CSc1nnc(-c2cccnc2)o1`, with 20.8%.

With `Cc1ccsc1/C=N\NC(=O)c1ccc2c(c1)OCO2`, the “hERG current change (%, negative = inhibition) at 10uM” value was -5.26%. The value for `COc1ccccc1C(=O)NC(=O)COc1cc(Cl)ccc1Cl` was 0.882%; that for `O=C1c2ccccc2C(=O)N1c1ncc(Cc2ccc(Cl)cc2)s1` was 8.75%. The value for `CC(=O)N[C@H]1C(O)O[C@H](CO)[C@@H](O)[C@@H]1O` (stereo partly shown) was 9.71%; that for `O=C(COc1cccc(C(F)(F)F)c1)Nc1cccnc1` was 4.03%; that for `CCc1ccccc1NC(=O)CSc1nnc(CCNC(=O)OC(C)(C)C)o1` was 13.9%. Then `Cn1c(=O)c2c(nc(N3CCN(c4ccccc4)CC3)n2CCCc2ccccc2)n(C)c1=O`, with 5.04%. For the compound `COCCSc1nc2c(c(=O)[nH]c(=O)n2C)n1CCCc1ccccc1`, the “hERG current change (%, negative = inhibition) at 10uM” value is listed as -9.86%. Then `COC(=O)c1ccc(NC(=O)CCc2c(C)nc3ncnn3c2C)cc1`, with 3.46%; and `Cc1nc(NC(=O)c2cccc(Cl)c2)sc1-c1csc(Nc2cccc(Cl)c2)n1`, with 6.47%. Then `O=C1CCN(S(=O)(=O)c2ccc(Cl)cc2)CCN1`, with 0.31%. Then `O=C(CSc1nnc(NC(=O)c2ccccc2)s1)NCc1ccco1`, with 15.7%. In the case of `CCN1C(=O)[C@H]2[C@@H](c3ccc(-c4ccc(F)cc4)c(OC)c3)N3CCC[C@@]3(C(=O)OC)[C@H]2C1=O.O=C(O)C(F)(F)F`, the “hERG current change (%, negative = inhibition) at 10uM” value was -5.88%.

Regarding `Cc1ccc(-c2nn(-c3ccc(F)cc3)cc2C(=O)NC2CCC(O)CC2)cc1` (stereo not shown), the “hERG current change (%, negative = inhibition) at 10uM” value is recorded as 14.4%. The value for `O=C(O)COc1ccc(-c2nccc(-c3cccs3)n2)cc1` was 9.86%. The value for `O=C(NCc1ccccn1)C(=O)C1C(=O)Nc2ccccc21` (stereo not shown) was 10%; that for `O=C(Cc1ccc(Cl)c(Cl)c1)NC1CCCCCC1` was 2.45%. The value for `CC(C)(C)NC(=O)C(c1cccs1)N(C(=O)C(=O)NC1CCCC1)c1ccccc1F` (stereo not shown) was -1.42%.

Take `CN(C)CCNC(=O)CNC(=S)N(Cc1ccccc1)Cc1ccccc1F`: the “hERG current change (%, negative = inhibition) at 10uM” value is -40.6%. The value for `CCCN(Cc1nnc(-c2ccccc2Cl)o1)C(=O)c1cc([N+](=O)[O-])cc([N+](=O)[O-])c1` was -55.1%; that for `CC(C)CNC(=S)N1CCN(C)CC1.O=C(O)C(=O)O` was 11.7%; that for `CN1C(=O)CC[C@H]1c1cccnc1` was 8.38%. The value for `O=[N+]([O-])c1cc([N+](=O)[O-])c(Oc2cncc(Cl)c2)cc1NC1CCCCCCC1` was 17.7%; that for `CC(C)C[C@H](NC(=O)c1nc[nH]c1C(=O)NCc1ccccc1)C(=O)OC(C)(C)C` was 13%; that for `COc1ccc([N+](=O)[O-])cc1N1C(=O)c2cccc3cccc(c23)C1=O` was -1.7%. For the compound `O=[N+]([O-])c1ccc(-c2nnc3n2CCCCC3)cc1`, the “hERG current change (%, negative = inhibition) at 10uM” value was -17.3%.

For `COc1ccc(C2CC2/C(C)=N/OC(=O)C2CC2)cc1` (stereo not shown), the “hERG current change (%, negative = inhibition) at 10uM” value came out at 5%.

As to `N#CCOc1nc(N2CCCC2)nc(N2CCCC2)n1`, the “hERG current change (%, negative = inhibition) at 10uM” value was determined as 0.43%. Then `CCCCCCCN1CCN=C1N(C)C`, with -67.7%; and `O=C(Oc1ccc(Cl)cc1)c1ccc2nccnc2c1`, with 13.1%. For `Cn1cnnc1SCC(=O)N(Cc1ccc2c(c1)OCO2)C1(C(=O)NC2CCCCC2)CCCC1`, the “hERG current change (%, negative = inhibition) at 10uM” value is given as -1.46%.

In the case of `CCn1c(CSc2nc3ccccc3s2)nnc1SCC(=O)c1ccc(O)cc1O`, the “hERG current change (%, negative = inhibition) at 10uM” value is recorded as 12.2%. Then `CCOCCCN(C)C1CCN(C(=O)c2oc3ccccc3c2NC(=O)c2ccc(F)cc2)CC1`, with -77.5%. The value for `Cc1cnc(C(=O)OCC(=O)Nc2ccc(Cl)cc2)cn1` was -1.37%; that for `O=C(Nc1ncn[nH]1)c1ccc(S(=O)(=O)N2CCOCC2)cc1` was -5.88%; that for `COc1ccc(OCC(=O)N/N=C2\CCCCc3ccccc32)cc1` was -12.3%.

With `Cc1ccc(SCCn2nc(C(=O)O)c3ccccc3c2=O)cc1`, the “hERG current change (%, negative = inhibition) at 10uM” value is recorded as 10.7%. With `COc1ccc(COCC(O)CN2CCC(CN3C(=O)c4cccc5cccc(c45)C3=O)CC2)cc1OC.Cl` (stereo not shown), the “hERG current change (%, negative = inhibition) at 10uM” value is -71.5%. Then `Cc1nc(-c2ccc(NC(=O)c3ccccc3Br)cc2)cs1`, with -3.18%; and `COc1ccc(NC(=O)c2oc3ccccc3c2NC(=O)c2ccco2)cc1`, with -8.61%; and `CCc1ccccc1NC(=S)N(CCN(C)C)C(C)c1cccnc1` (stereo not shown), with -7.25%. The value for `CCCC(=O)Nc1ccc(NC(=O)c2ccco2)cn1` was 5.91%.
